Measured values taken from PMC4336329 (PLoS ONE, 2015).
Among all 310,000 compounds or so, about 2,200 (0.71%) showed an effect of 50% or more. The effect is printed as a negative number. The list shows a part of the results.

The compounds below were run against human ether-à-go-go-related gene (hERG) potassium channel (human, UniProt Q12809) (assay: primary screen, population patch clamp on CHO cells stably expressing hERG).
Chain of human ether-à-go-go-related gene (hERG) potassium channel (Q12809 whole entry, looked up): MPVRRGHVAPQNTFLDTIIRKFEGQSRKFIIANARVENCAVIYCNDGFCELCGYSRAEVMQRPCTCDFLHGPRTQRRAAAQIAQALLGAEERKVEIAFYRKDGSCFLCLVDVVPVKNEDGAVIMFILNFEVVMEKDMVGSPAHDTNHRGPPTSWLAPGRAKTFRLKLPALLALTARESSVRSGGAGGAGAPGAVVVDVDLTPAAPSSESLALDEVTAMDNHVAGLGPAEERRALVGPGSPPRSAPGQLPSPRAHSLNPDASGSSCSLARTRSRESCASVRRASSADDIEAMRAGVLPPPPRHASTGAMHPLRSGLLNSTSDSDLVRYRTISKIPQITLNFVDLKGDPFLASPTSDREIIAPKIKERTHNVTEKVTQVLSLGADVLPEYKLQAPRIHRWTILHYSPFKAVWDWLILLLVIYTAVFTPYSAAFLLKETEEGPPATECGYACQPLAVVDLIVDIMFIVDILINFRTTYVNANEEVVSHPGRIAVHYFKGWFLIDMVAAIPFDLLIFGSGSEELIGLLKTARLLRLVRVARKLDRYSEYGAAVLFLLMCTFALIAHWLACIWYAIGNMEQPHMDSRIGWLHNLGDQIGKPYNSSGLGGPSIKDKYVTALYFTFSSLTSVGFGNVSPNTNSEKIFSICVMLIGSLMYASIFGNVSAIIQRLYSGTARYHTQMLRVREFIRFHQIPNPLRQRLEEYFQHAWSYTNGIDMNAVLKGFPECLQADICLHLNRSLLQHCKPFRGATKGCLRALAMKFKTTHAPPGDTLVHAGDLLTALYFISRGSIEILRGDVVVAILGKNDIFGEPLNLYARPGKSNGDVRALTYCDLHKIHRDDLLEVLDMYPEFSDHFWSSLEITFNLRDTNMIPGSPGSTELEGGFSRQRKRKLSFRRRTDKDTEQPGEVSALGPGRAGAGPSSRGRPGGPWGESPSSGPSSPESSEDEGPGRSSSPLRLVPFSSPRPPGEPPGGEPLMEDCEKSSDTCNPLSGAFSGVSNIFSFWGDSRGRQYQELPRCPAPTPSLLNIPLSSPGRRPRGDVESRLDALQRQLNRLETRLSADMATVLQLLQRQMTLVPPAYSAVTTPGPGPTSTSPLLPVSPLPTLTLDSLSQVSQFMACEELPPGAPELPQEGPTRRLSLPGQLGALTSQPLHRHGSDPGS

First: COC(CNC(=O)c1ccc(N2CCc3ccccc32)c([N+](=O)[O-])c1)OC
Second: COc1ccc(C(=O)NCC2COc3ccccc3O2)cc1S(=O)(=O)N1CCOCC1 (stereo not drawn)
The “hERG current change (%, negative = inhibition) at 1uM” value of the first is higher: 4.03% for the first, -3.4% for the second.

Compared with `CN(/N=C/Cc1nnnn1-c1ccc(Cl)cc1)c1ccccc1`, `COc1ccccc1C(=O)n1nc(-c2ccc(Cl)cc2)nc1N` is lower in “hERG current change (%, negative = inhibition) at 1uM” value: 10.5% for the first, -0.0851% for the second.

Going from `Cc1ccnc(NCc2cc(C)ccc2O)c1` to `Cc1ccc(C(=O)c2cc(C)sc2N)cc1`, the “hERG current change (%, negative = inhibition) at 1uM” value falls from 21.6% to 9.34%.

Going from `COc1ccc(S(=O)(=O)NCC2CCCN(C(=O)c3cccnc3)C2)cc1` (stereo not drawn) to `COc1ccc2[nH]c(=O)c(CN(CC3CCCO3)S(=O)(=O)c3ccccc3)cc2c1` (stereo not drawn), the “hERG current change (%, negative = inhibition) at 1uM” value falls from 11.3% to 8.06%.

First: Nc1n[nH]c(C2CC2)c1N=Nc1ccc(Cl)c(Cl)c1
Second: Cc1ccc2c(-c3csc(N)n3)c[nH]c2c1
The “hERG current change (%, negative = inhibition) at 1uM” value of the first is lower: 10.6% for the first, 18.9% for the second.

Going from `CC(C)C(=O)Nc1ccc(S(=O)(=O)N2CC3CC(C2)c2cccc(=O)n2C3)cc1` (stereo not drawn) to `COc1ccccc1OCCC(=O)Nc1cccc(S(=O)(=O)N2CCOCC2)c1`, the “hERG current change (%, negative = inhibition) at 1uM” value rises from 3.49% to 11.7%.

First: CCOC(=O)N1CCN(c2c(N3CCN(c4ccccn4)CC3)c(=O)c2=O)CC1
Second: CCCc1cc(C(=O)N2CCN(c3ccccc3C)CC2)cs1
The “hERG current change (%, negative = inhibition) at 1uM” value of the first is higher: 0.525% for the first, -3.95% for the second.

Compared with `CCCN(CCC)C(=O)/C=C/c1cccc([N+](=O)[O-])c1`, `O=C(O)c1ccc(N=NNc2cccc([N+](=O)[O-])c2)cc1` is higher in “hERG current change (%, negative = inhibition) at 1uM” value: 4.04% for the first, 18.8% for the second.

First: Clc1ccc(OCc2cnc(Cl)s2)cc1
Second: COc1ccc(-c2cn3c(C)c(C(=O)NCc4ccc5c(c4)OCO5)sc3n2)cc1
The “hERG current change (%, negative = inhibition) at 1uM” value of the first is lower: 8.98% for the first, 9.64% for the second.

First: CCOC(=O)c1c(/N=C/C2=C(O)CC(C)(C)CC2=O)sc(C(C)=O)c1C
Second: CCOC(=O)c1c(C)[nH]c(C(=O)OCC(=O)Nc2ccccc2)c1C
The “hERG current change (%, negative = inhibition) at 1uM” value of the first is lower: 0.934% for the first, 20% for the second.

First: COc1cc(/C=C/C(=O)c2ccc3c(c2)OCCO3)cc(Br)c1OCC(=O)N(C)C
Second: COc1cc(/C=N/NC(=O)c2nc3ccccn3c2C)cc(OC)c1O
The “hERG current change (%, negative = inhibition) at 1uM” value of the first is higher: 13.9% for the first, 7.34% for the second.

Going from `Cc1cccc(OCc2nc(C#N)c(N3CCCC3)o2)c1` to `COc1cc(OC)cc(-c2nnc(SCC(=O)N3CCCCC3)o2)c1`, the “hERG current change (%, negative = inhibition) at 1uM” value falls from 11.8% to -0.147%.

Going from `Cc1ccnn1CC(=O)N/N=C/c1cn[nH]c1-c1ccc(F)cc1` to `Cc1ccc(C(=O)Nc2ccc(C(=O)N/N=C/c3c[nH]c4ccccc34)cc2)cc1`, the “hERG current change (%, negative = inhibition) at 1uM” value falls from 8.69% to 2.86%.

Going from `O=C(O)C1SCCN1S(=O)(=O)c1ccc2ccccc2c1` (stereo not drawn) to `O=C(Nc1ccc2ccccc2c1)c1ccccc1O`, the “hERG current change (%, negative = inhibition) at 1uM” value rises from 11.5% to 12%.

Going from `CCC(=Nc1ccc2c(c1)CCC2)c1c(O)n(-c2ccc(OC)cc2)c(=O)[nH]c1=O` to `COc1ccc(CCn2nnc(-c3ccc(NC(C)=O)c(Cl)c3)n2)cc1`, the “hERG current change (%, negative = inhibition) at 1uM” value rises from 8.84% to 10.7%.

Compared with `Cc1coc2c1c(C)cc1oc(=O)c(CC(=O)N[C@@H](C)C(=O)O)c(C)c12`, `COc1cccc(CCc2nnc(CCC(=O)NC(C)c3c(C)nn(C)c3C)o2)c1` (stereo not drawn) is higher in “hERG current change (%, negative = inhibition) at 1uM” value: 11.6% for the first, 13.8% for the second.

First: Cc1cc(-n2c(C)cc(C(=O)COc3cc(F)ccc3[N+](=O)[O-])c2C)no1
Second: CCCn1c(C)cc(C(=O)Cn2nnc3ccccc3c2=O)c1C
The “hERG current change (%, negative = inhibition) at 1uM” value of the first is higher: 11.7% for the first, 5.87% for the second.

Going from `Cn1c(SCc2ccccc2Cl)nc(C(F)(F)F)cc1=O` to `O=C(CN(c1cc(C(F)(F)F)ccc1Cl)S(=O)(=O)c1ccccc1)NCc1cccnc1`, the “hERG current change (%, negative = inhibition) at 1uM” value rises from 6.63% to 14.3%.

Compared with `O=[N+]([O-])c1ccc(Sc2nccn2Cc2ccccc2)c([N+](=O)[O-])c1`, `Cc1nc(N/N=C/c2ccccc2)nc(N(C)c2ccccc2)c1[N+](=O)[O-]` is higher in “hERG current change (%, negative = inhibition) at 1uM” value: -4.2% for the first, 11.3% for the second.

Compared with `COc1ccc(OCC(=O)Nc2sc3c(c2C(=O)NCC2CCCO2)CCC3)cc1` (stereo not drawn), `COC(=O)c1c(NC(=O)CCCC(=O)O)sc2c1CCCCC2` is higher in “hERG current change (%, negative = inhibition) at 1uM” value: 8.63% for the first, 8.9% for the second.

Going from `CCC1=NN2C(=N)/C(=C\c3ccc(OCCOc4ccccc4)c(OC)c3)C(=O)N=C2S1` to `CCN(CC)CCC(c1ccc2c(c1)OCO2)c1c(OC)cc(OC)c2c(-c3ccccc3)cc(=O)oc12` (stereo not drawn), the “hERG current change (%, negative = inhibition) at 1uM” value falls from 13% to -2.04%.

Compared with `CN(C)N(Cc1ccccc1)C(=O)C(O)(c1ccccc1)c1ccccc1`, `CCC(C)Sc1cc(-c2nc3ccc(C)cn3c2NCc2ccccc2)ccc1OC.O=C(O)C(F)(F)F` (stereo not drawn) is lower in “hERG current change (%, negative = inhibition) at 1uM” value: 21% for the first, 8.95% for the second.

Going from `CC[C@H](C)[C@H](NS(=O)(=O)c1ccc(C)cc1)C(=O)N1CCC(C(=O)N[C@H](C(=O)O)C(C)C)CC1` to `Cc1ccc(S(=O)(=O)N2CCN(C(=O)N3CCOCC3)C2C(C)C)cc1` (stereo not drawn), the “hERG current change (%, negative = inhibition) at 1uM” value rises from -13.6% to 0.261%.

Compared with `CCC1(CC)C(=O)C2=C3C1[C@H](C(=O)OC)CC(C(=O)OC)C[C@H]3[C@H]1C(=O)N(c3ccccc3)C(=O)[C@H]1[C@H]2C` (stereo partly drawn), `CC1=C(OC(=O)c2ccc(Br)cc2)C(C)(C)C(c2ccccc2)OC1=O` (stereo not drawn) is higher in “hERG current change (%, negative = inhibition) at 1uM” value: 9.42% for the first, 12% for the second.

Compared with `CCOc1cc(S(=O)(=O)NCc2cccs2)ccc1Cl`, `CSc1ccc(Cl)c(C(=O)Nc2nccs2)c1` is lower in “hERG current change (%, negative = inhibition) at 1uM” value: 8.87% for the first, 6.39% for the second.

Compared with `COc1ccc(N2C(=O)/C(=C/c3cc(C)n(-c4ccc(C)cn4)c3C)C(=O)NC2=S)c(OC)c1`, `COc1ccc(N(C)C(=O)C2CCN(S(=O)(=O)c3cccc4nonc34)CC2)c(OC)c1` is lower in “hERG current change (%, negative = inhibition) at 1uM” value: 9.98% for the first, 3.56% for the second.

Compared with `CCc1ccc(/C=N/NC(=O)c2nnn(-c3nonc3N)c2C(C)C)cc1`, `CN(C)/C=C(\C#N)C(=O)N/N=C/c1ccc(Cl)cc1` is lower in “hERG current change (%, negative = inhibition) at 1uM” value: 20.8% for the first, 2.3% for the second.

First: CCc1n[nH]c(=S)n1/N=C/C(C)=C\c1ccccc1
Second: Cc1csc(=NC(=O)c2ccccc2)n1C
The “hERG current change (%, negative = inhibition) at 1uM” value of the first is higher: 15.4% for the first, 5.86% for the second.

Going from `Cc1cc2ccccc2n1CCC(=O)O` to `CNc1cnn(-c2ccccc2)c(=O)c1Cl`, the “hERG current change (%, negative = inhibition) at 1uM” value rises from 8.9% to 11.9%.

Compared with `Fc1ccccc1-c1nc2nc3ccccc3nc2n1CC1CCCO1` (stereo not drawn), `O=C(CSc1nnc(-c2cccs2)n1-c1ccccc1)NCC1CCCO1` (stereo not drawn) is lower in “hERG current change (%, negative = inhibition) at 1uM” value: 9.13% for the first, -38.7% for the second.

Compared with `O=C1CC(=O)N(Cc2ccco2)C(=S)N1`, `CC(=O)N1c2ccc(S(=O)(=O)N(C)Cc3ccco3)cc2CC1C` (stereo not drawn) is lower in “hERG current change (%, negative = inhibition) at 1uM” value: 7.25% for the first, 5.29% for the second.

Going from `NC(=O)NOCc1ccc(F)cc1Cl` to `CC(C)OC(=O)c1cc(C(=O)c2cc(F)ccc2O)coc1=N`, the “hERG current change (%, negative = inhibition) at 1uM” value falls from 15% to -1.8%.

First: CO[C@H]1[C@@H]2C=CO[C@@H](O[C@H]3O[C@@H](CO)[C@H](O)[C@@H](O)[C@@H]3O)[C@@H]2[C@@]2(CO)O[C@@H]12
Second: COc1ccc(C[C@H]2c3cc(O)c(OC)cc3CC[N+]2(C)[O-])cc1O (stereo partly drawn)
The “hERG current change (%, negative = inhibition) at 1uM” value of the first is lower: -5.17% for the first, 16.9% for the second.

Compared with `COc1ccc(N)cc1-n1cnnn1`, `COc1cccc(Nc2nc(-c3sc(N)nc3C)cs2)c1` is lower in “hERG current change (%, negative = inhibition) at 1uM” value: 30.1% for the first, 0.629% for the second.

First: O=C(NCCNC(=O)c1cnccn1)c1ccc(Cl)c(Cl)c1
Second: C/C(=N\NC(=O)c1ccncc1)c1ccc(NC(=O)c2ccc(Cl)cc2)cc1
The “hERG current change (%, negative = inhibition) at 1uM” value of the first is lower: 2.07% for the first, 11.5% for the second.

First: Cn1c(=O)cc(OCC(=O)N2CCC(N3CCCCC3)CC2)c2ccccc21
Second: Cc1ccccc1C(=O)N1CCC(C(=O)NC2CCCCC2)CC1
The “hERG current change (%, negative = inhibition) at 1uM” value of the first is lower: 8.88% for the first, 13.5% for the second.

Going from `CCCCn1c(SCC(=O)NCc2ccco2)nc2ccc(N3CCOCC3)cc2c1=O` to `Cn1c(CNC(=O)OC(C)(C)C)nnc1SCC(=O)N1CCOCC1`, the “hERG current change (%, negative = inhibition) at 1uM” value rises from 4.91% to 12.3%.

Compared with `Cc1ccc(N(CC(=O)NCC2CCCO2)C(=O)CCC(=O)Nc2nccs2)cc1` (stereo not drawn), `O=C(NCC1CCCO1)C1c2ccccc2C(=O)N1Cc1ccc2c(c1)OCO2` (stereo not drawn) is lower in “hERG current change (%, negative = inhibition) at 1uM” value: 6.44% for the first, -8.67% for the second.

Compared with `COc1ccccc1C(=O)NC(CCSC)C(=O)NCC(c1cccs1)N(C)C` (stereo not drawn), `CCOc1ccccc1CNC(=O)c1ccc(NC(=O)C2=CSCCO2)cc1` is lower in “hERG current change (%, negative = inhibition) at 1uM” value: 19% for the first, 12.5% for the second.

First: CCOC(=O)c1c(C)oc2c1c1c(c3ccccc32)OCN(Cc2ccccn2)C1
Second: CN(Cc1nccs1)C(=O)c1ccc2nc(Cc3ccccc3F)oc2c1
The “hERG current change (%, negative = inhibition) at 1uM” value of the first is lower: 0.17% for the first, 8.66% for the second.

First: N/C(=N\OC(=O)CCC1CCCC1)c1ccc([N+](=O)[O-])cc1
Second: COc1cc([N+](=O)[O-])cc(/C=N/NC(=O)c2cncc(Br)c2)c1O
The “hERG current change (%, negative = inhibition) at 1uM” value of the first is higher: 10.1% for the first, 5.85% for the second.

Compared with `O=C1NC(C(F)(F)F)(C(F)(F)F)N=C2SC=CN12`, `O=C(Nc1ccc(F)cc1)N1CCN(c2ccc(F)cc2)CC1` is lower in “hERG current change (%, negative = inhibition) at 1uM” value: 1.69% for the first, -22% for the second.

Going from `Cc1ccc(CNC(=O)CCNS(=O)(=O)c2ccc3c(c2)c(=O)n(C)c(=O)n3C)cc1` to `CCc1cccc(C)c1NC(=S)N(CCN(C)C)C(C)c1cccnc1` (stereo not drawn), the “hERG current change (%, negative = inhibition) at 1uM” value falls from 17.1% to 10.3%.

For `Cc1cc(NC(=O)CSc2n[nH]c(N)n2)no1`, the “hERG current change (%, negative = inhibition) at 1uM” value was 5.17%.
